No constants are given. Whether binding was seen depends on the method and setting. Some results given as binding are weak or reduced against the parent protein; the word gives no strength. Where a sequence is shown, tags or fusion partners need not be part of it.
Assays:
[1] = target: T1, PpaA fused to the T18 or T25 fragment of adenylate cyclase (BACTH) (Dinoroseobacter shibae) (UniProt A8LQ25); assay: two-hybrid; BACTH in E. coli BTH101 as a3, with 15 nM hydroxy cobalamin (vitamin B12) in the medium; blue colour on X-Gal plates and β-galactosidase activity of overnight cultures
T1 sequence: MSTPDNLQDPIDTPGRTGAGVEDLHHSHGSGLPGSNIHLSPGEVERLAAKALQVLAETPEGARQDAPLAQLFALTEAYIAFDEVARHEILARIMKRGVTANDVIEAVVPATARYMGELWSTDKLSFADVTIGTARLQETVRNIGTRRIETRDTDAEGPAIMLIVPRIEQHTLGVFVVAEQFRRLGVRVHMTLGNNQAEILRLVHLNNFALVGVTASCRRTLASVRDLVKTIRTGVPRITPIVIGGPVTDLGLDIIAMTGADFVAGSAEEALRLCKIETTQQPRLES

[2] = target: T1, PpaA fused to the T18 or T25 fragment of adenylate cyclase (BACTH) (Dinoroseobacter shibae); assay: two-hybrid; Bacterial adenylate cyclase two-hybrid (BACTH) in E. coli BTH101, N- and C-terminal T18 and T25 fusions in all combinations, grown in the dark, no hydroxy cobalamin added; blue colour on LB/X-Gal/IPTG plates and β-galactosidase activity of overnight cultures in 96 well plates
[3] = target: T2, PpsR fused to the T18 or T25 fragment of adenylate cyclase (BACTH) (Dinoroseobacter shibae) (UniProt A8LQ24); assay: condition: only without hydroxy cobalamin in the medium; two-hybrid; Bacterial adenylate cyclase two-hybrid (BACTH) in E. coli BTH101, N- and C-terminal T18 and T25 fusions in all combinations, grown in the dark, no hydroxy cobalamin added; blue colour on LB/X-Gal/IPTG plates and β-galactosidase activity of overnight cultures in 96 well plates
T2 sequence: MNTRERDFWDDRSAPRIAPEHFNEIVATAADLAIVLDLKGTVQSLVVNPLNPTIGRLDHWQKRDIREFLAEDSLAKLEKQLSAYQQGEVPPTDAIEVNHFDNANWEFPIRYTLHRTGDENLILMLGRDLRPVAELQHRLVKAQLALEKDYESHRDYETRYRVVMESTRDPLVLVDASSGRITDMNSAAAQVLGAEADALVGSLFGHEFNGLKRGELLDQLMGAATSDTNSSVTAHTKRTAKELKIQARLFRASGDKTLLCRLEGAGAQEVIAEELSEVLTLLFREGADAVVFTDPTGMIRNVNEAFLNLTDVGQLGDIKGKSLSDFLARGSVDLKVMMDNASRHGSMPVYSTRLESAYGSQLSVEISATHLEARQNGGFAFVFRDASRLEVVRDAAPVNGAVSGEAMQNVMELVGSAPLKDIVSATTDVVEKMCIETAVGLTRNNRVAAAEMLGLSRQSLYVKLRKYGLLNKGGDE

[4] = target: T1, PpaA fused to the T18 or T25 fragment of adenylate cyclase (BACTH) (Dinoroseobacter shibae); assay: condition: only T18 and T25 both fused N-terminally or both C-terminally; two-hybrid; Bacterial adenylate cyclase two-hybrid (BACTH) in E. coli BTH101, N- and C-terminal T18 and T25 fusions in all combinations, grown in the dark, no hydroxy cobalamin added; blue colour on LB/X-Gal/IPTG plates and β-galactosidase activity of overnight cultures in 96 well plates
[5] = target: T2, PpsR fused to the T18 or T25 fragment of adenylate cyclase (BACTH) (Dinoroseobacter shibae); assay: two-hybrid; BACTH in E. coli BTH101 as a3, with 15 nM hydroxy cobalamin (vitamin B12) in the medium; blue colour on X-Gal plates and β-galactosidase activity of overnight cultures
[6] = target: T2, PpsR fused to the T18 or T25 fragment of adenylate cyclase (BACTH) (Dinoroseobacter shibae); assay: two-hybrid; Bacterial adenylate cyclase two-hybrid (BACTH) in E. coli BTH101, N- and C-terminal T18 and T25 fusions in all combinations, grown in the dark, no hydroxy cobalamin added; blue colour on LB/X-Gal/IPTG plates and β-galactosidase activity of overnight cultures in 96 well plates
[7] = target: T1, PpaA fused to the T18 or T25 fragment of adenylate cyclase (BACTH) (Dinoroseobacter shibae); assay: condition: only without hydroxy cobalamin in the medium; two-hybrid; Bacterial adenylate cyclase two-hybrid (BACTH) in E. coli BTH101, N- and C-terminal T18 and T25 fusions in all combinations, grown in the dark, no hydroxy cobalamin added; blue colour on LB/X-Gal/IPTG plates and β-galactosidase activity of overnight cultures in 96 well plates

Binder | binding [1] | binding [2] | binding [3] | binding [4] | binding [5] | binding [6] | binding [7]
PpaA fused to the T18 or T25 fragment of adenylate cyclase (BACTH) (protein, UniProt A8LQ25 1-286) MSTPDNLQDPIDTPGRTGAGVEDLHHSHGSGLPGSNIHLSPGEVERLAAKALQVLAETPEGARQDAPLAQLFALTEAYIAFDEVARHEILARIMKRGVTANDVIEAVVPATARYMGELWSTDKLSFADVTIGTARLQETVRNIGTRRIETRDTDAEGPAIMLIVPRIEQHTLGVFVVAEQFRRLGVRVHMTLGNNQAEILRLVHLNNFALVGVTASCRRTLASVRDLVKTIRTGVPRITPIVIGGPVTDLGLDIIAMTGADFVAGSAEEALRLCKIETTQQPRLES | binds | binds | no binding | no binding |  |  | 
PpsR fused to the T18 or T25 fragment of adenylate cyclase (BACTH) (protein, UniProt A8LQ24 1-476) MNTRERDFWDDRSAPRIAPEHFNEIVATAADLAIVLDLKGTVQSLVVNPLNPTIGRLDHWQKRDIREFLAEDSLAKLEKQLSAYQQGEVPPTDAIEVNHFDNANWEFPIRYTLHRTGDENLILMLGRDLRPVAELQHRLVKAQLALEKDYESHRDYETRYRVVMESTRDPLVLVDASSGRITDMNSAAAQVLGAEADALVGSLFGHEFNGLKRGELLDQLMGAATSDTNSSVTAHTKRTAKELKIQARLFRASGDKTLLCRLEGAGAQEVIAEELSEVLTLLFREGADAVVFTDPTGMIRNVNEAFLNLTDVGQLGDIKGKSLSDFLARGSVDLKVMMDNASRHGSMPVYSTRLESAYGSQLSVEISATHLEARQNGGFAFVFRDASRLEVVRDAAPVNGAVSGEAMQNVMELVGSAPLKDIVSATTDVVEKMCIETAVGLTRNNRVAAAEMLGLSRQSLYVKLRKYGLLNKGGDE |  |  |  |  | binds | binds | no binding
